Out of some 150,000 compounds screened, about 540 (0.36%) showed an effect of 50% or more. This is one part of the list.

The test system of this assay is Plasmodium falciparum. Description: Primary screen in NF54 nanoGlo assay, in single point, at 2uM, 72h; a lower Z score goes with more inhibition. The class given is functional, Erythrocyte. To be noted: timepoint 72 hour.
What is called % Inhibition is the relative decrease from the control value, in per cent. In the case of `CC(=O)c1cn([C@@H](C)C(=O)NCc2cc(O)ncn2)c2ccccc12`, the “% Inhibition” value is -9% and the Z score worked out at 1.67.
`COCCCNS(=O)(=O)CC1CCCCC1`: the “% Inhibition” value amounted to 7% and the Z score is reported as -1.37.
The like results for `Cn1ncnc1NC(=O)CCC1CCCC1` were, in that order, -2% and 0.45.
For `COC(=O)CC(Cc1ccccc1)NS(=O)(=O)N1CCCC(C)C1` (centres undefined) the same measures were 6% and -0.98.
For `Cn1cnn(CCc2cc(Cl)c3c(c2)OCCCO3)c1=O`, the “% Inhibition” value was -8% and the Z score was determined as 0.73.
The like results for `O=C(Nc1ccc2c(c1)OCO2)c1ccccn1` were, in that order, 0% and 0.07.
For `CC(=O)N[C@@H](Cc1c[nH]c2ccccc12)C(=O)N1CCN(c2nccs2)CC1` the same measures were 2% and -0.33.
Turning to `CCc1ccnc(C(=O)N[C@H]2CCN(c3cc(=O)n(C)c(=O)[nH]3)C2)c1`, the “% Inhibition” value is reported as -14% and the Z score amounted to 1.59.
In the case of `Cc1ccc(C(=O)N2CCC3(CCC(=O)N([C@H]4CC[C@H](O)CC4)C3)CC2)cc1`, the “% Inhibition” value is 2% and the Z score is listed as -0.31.
As for `O=C(Cn1nc(N2CCOCC2)ccc1=O)N1CCN(c2cccc(Cl)c2)CC1`, the “% Inhibition” value is listed as -8% and the Z score was found to be 1.37.
For `CCN1CCC2(CCN(C(=O)CC3(c4ccccc4)CC(=O)N(Cc4cccs4)C3=O)C2)C1` (centres undefined) the same measures were -1% and 0.11.
The like results for `C[C@H]1CCCN(S(=O)(=O)NCC(=O)Nc2ccccn2)C1` were, in that order, 34% and -4.88.
For `Cc1nonc1C(=O)N1CCCN(CC2CC2)[C@H](C(C)C)C1` the same measures were -6% and 0.6.
Consider `COc1ccc(Nc2nnc(/C=C/c3ccc(Cl)cc3)c(=O)n2N)cc1`, for which the “% Inhibition” value is -32% and the Z score is 3.73.
For `Cc1ccc(S(=O)(=O)N[C@H](CO)CC(F)(F)F)o1` the same measures were -15% and 1.67.
For `CCN1C[C@H](CN(C)CC(=O)Nc2sc3c(c2C#N)CCC3)Oc2ccccc21` the same measures were 16% and -1.88.
Take `O=C(Cn1cc(F)c(=O)n(CC(=O)Nc2ccccc2Cl)c1=O)Nc1ccccc1Cl`: the “% Inhibition” value is -1% and the Z score is on record as 0.12.
The like results for `Cc1ccc(-c2cccc(C(=O)NCCN3CCC[C@H](C(N)=O)C3)c2)o1` were, in that order, -1% and 0.12.
For `CC(C)n1nccc1NC(=O)CN1CCCC1` the same measures were -10% and 1.13.
For `Cc1cccc(N2CCN(C(=O)c3cnn4c5c(cnc34)C(=O)CC(C)(C)C5)CC2)c1C` the same measures were -12% and 1.67.
In the case of `CCN1CCN(Cc2cccc3cccnc23)C(C)(C)C1=O`, the “% Inhibition” value was -9% and the Z score was 1.65.
The like results for `Cc1ccc(C2CCN(CC(=O)Nc3cccnn3)CC2)cn1` were, in that order, 3% and -0.48.
The like results for `CCc1nc(CN(C)Cc2cc(C)on2)cs1` were, in that order, -12% and 1.57.
For `CCc1ccccc1NC(=O)CN1CC[C@H](C2CC2)C1` the same measures were -11% and 2.18.
As to `COc1ccc2c(c1)CN([C@H]1CC(=O)N(CC(F)(F)F)C1=O)CC2`, the “% Inhibition” value is -1% and the Z score was found to be 0.12.
The like results for `O=C(N[C@H]1CCOC[C@@H]1O)c1cc(Cl)c[nH]c1=O` were, in that order, -11% and 1.23.
For `CCn1cc([C@H](CC(=O)NCCC(C)C)c2cccc(F)c2)c2ccccc21` the same measures were 8% and -1.07.
As for `FC(F)Oc1cccc(CN2CC[C@H]3[C@H](C2)OCc2cnnn23)c1`, the “% Inhibition” value is -7% and the Z score stood at 1.03.
The like results for `COc1cc(C(=O)NCC(F)(C(F)(F)F)C(F)(F)F)sn1` were, in that order, 13% and -1.53.
For `Cc1cccnc1CC(=O)N1CCNC(=O)C12CCCC2`, the “% Inhibition” value is -14% and the Z score was 1.29.
For `CN(C)c1cc(OCC2(O)CC(N(C)C(=O)CCC3CCC3)C2)ncc1-c1ccccc1` (centres undefined) the same measures were -14% and 2.65.
`Cc1ccccc1Oc1nc(-c2ccccc2)cc(C)c1S(=O)(=O)c1ccc(Cl)cc1`: the “% Inhibition” value amounted to 8% and the Z score is reported as -1.19.
The like results for `CN1CCC(CCO)(NC(=O)c2ccnc3cc(Cl)ccc23)CC1` were, in that order, -13% and 2.43.
For `O=S(=O)(c1ccccc1)N(c1cccnc1)S(=O)(=O)c1ccccc1` the same measures were 32% and -3.6.
The like results for `Cc1nn(-c2ccccc2)c2nc(C(=O)N[C@H]3CCCOCC3)ccc12` were, in that order, -13% and 1.32.
Regarding `Cc1cccc2c1CCCN2C[C@@H]1CCC(=O)N1`, the “% Inhibition” value worked out at 3% and the Z score is -0.3.
For `Cc1cccc(CC(=O)N2CC[C@H](n3nccn3)C2)c1` the same measures were -4% and 0.52.
The like results for `CC(C)(NS(C)(=O)=O)C(=O)NC1CC(OCc2ccccc2)C1(C)C` (centres undefined) were, in that order, -7% and 1.32.
On to `O=C(O)[C@H]1CN(Cc2cc(F)ccc2F)CC12CCC2`, for which the “% Inhibition” value is reported as -8% and the Z score turned out to be 1.12.
The like results for `Cc1c(C(C)NC(=O)N2CCCC2c2cccs2)cnn1C` (centres undefined) were, in that order, -2% and 0.28.
As to `COc1ccc([C@@H]2CCCN2C(=O)CCc2cscn2)cc1OC`, the “% Inhibition” value is -4% and the Z score came to 0.72.
For `C[C@@H](C(=O)Nc1cccc(O)c1)c1ccc(Cl)s1` the same measures were -5% and 0.42.

Source of the values: ChEMBL document CHEMBL4888484, “Replenishing the malaria drug discovery pipeline: Screening and hit evaluation of the MMV Hit Generation Library 1 (HGL1) against asexual blood stage Plasmodium falciparum ,using a nano luciferase reporter read-out” (2022).
